Assay results as given in PubChem BioAssay AID686978 (National Center for Advancing Translational Sciences (NCATS), 2013).
In all, about 420,000 compounds went through this assay and about 64,000 (15%) were called active. This list was built around the results that the source calls inconclusive (neither active nor inactive); the mix of calls is not that of the screen. Calls follow the shape of the dose curve; as a rule, active = well fitted inhibition curve with a large enough effect; inconclusive = small, poorly fitted or top-dose-only effect; inactive = flat fitted curve, though single readings scatter. Potencies of inconclusive entries are left out as doubtful fits.

Test: qHTS for Inhibitors of human tyrosyl-DNA phosphodiesterase 1 (TDP1): qHTS in cells in absence of CPT; also: nearly all actives have a fitted effect of over 55% in size
Settings: DT40 Tdp1-/- hTDP1 cells, no CPT, ATP luminescence, 48 h; activity change, negative = growth inhibition: at 46.2 µM (top of the series) unless noted
Summary of the method: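 Stably hTDP1-transfected Tdp1-null chicken DT40 cells were treated with library compounds minus camptothecin and grown for at least 48 hr at 37 °C, after which cellular ATP was quantified by luminescence.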
% is scaled to controls: 0 for no effect and ±100 for the full control effect; potency is read from the fitted curve at half-maximal effect; tags tell the direction and shape of the fitted curve.

| Structure (SMILES) | Potency | activity change, negative = growth inhibition |
| --- | --- | --- |
| COc1ccccc1NC(=S)NCC1CCC(CNC(=S)Nc2ccccc2OC)CC1 (stereo unspecified) | inconclusive [inhibitor, single point] |  |
| Oc1ccc(CN2CCN(Cc3ccccc3)CC2)c2cccnc12 | inconclusive [inhibitor, single point] |  |
| O=C1C=C(c2ccccc2)C(c2ccccc2)C1O (stereo unspecified) | inactive |  |
| COc1ccc(CNC(=O)C(c2ccco2)N(C(=O)CNS(=O)(=O)c2ccccc2)c2ccccc2C)cc1 (stereo unspecified) | inconclusive [inhibitor, single point] |  |
| Cc1ccc(NC(=O)Cn2c(=O)n(-c3ccc(C)cc3)c(=O)c3ccc(C(=O)NCc4ccccc4Cl)cc32)cc1 | active: 13 µM |  |
| O=C1C[C@@H]2c3c(cccc3CN1Cc1ccccc1F)C[C@@H](O)[C@H]2O | inactive |  |
| CNC(=O)c1[nH]cnc1C(=O)N[C@@H](CC(C)C)C(=O)OCc1ccccc1 |  | inconclusive: -33.4% [inhibitor] |
| Cc1ccc(/C=N/NC(=O)c2nnn(-c3nonc3N)c2-c2ccccc2)o1 | inactive |  |
| COc1cc(CNn2nnnc2N)ccc1OCC(=O)NC(C)(C)C | inactive |  |
| CC(C)CCn1c(N2CCc3ccccc3C2)nc2c1c(=O)[nH]c(=O)n2C | inconclusive [inhibitor, single point] |  |
| CCc1c(C#N)c(SCCC(=O)Nc2ccc(F)cc2)nc2c1C(=O)CC(C)(C)C2 | inconclusive [inhibitor, single point] |  |
| Cc1ccc(C2=C(O)c3ccccc3C(=O)C2=O)cc1 | inactive |  |
| Cn1cc(SCC(=O)NCCc2ccccc2)c2ccccc21 | inconclusive [inhibitor, single point] |  |
| COc1cc2ncnc(NCc3cc(F)ccc3F)c2cc1OC | inconclusive [inhibitor, single point] |  |
| Cn1cnc(S(=O)(=O)N2CCCCC2c2cc(C(=O)Nc3cccc(C#N)c3)no2)c1 (stereo unspecified) | inactive |  |
| CN1CC(=O)N/C1=N/C(=O)Nc1cccc(Cl)c1 | inactive |  |
| C#CCNC(=O)C1=C[C@H](c2ccc(Br)cc2)C[C@H](OCCCCO)O1 | inactive |  |
| CC(=O)Nc1nonc1-c1nnc(SCc2ccc(F)cc2Cl)n1C | active: 14.6 µM |  |
| COc1cccc(C2C(C(=O)Nc3ccc(Cl)cc3)=C(C)Nc3c(C(=O)Nc4ccccc4)cnn32)c1OC (stereo unspecified) | inconclusive [inhibitor, single point] |  |
| CCOC(=O)c1cnc2ccccc2c1NCc1ccco1 | inconclusive [inhibitor, partial curve] |  |
| O=C(c1ccc(-c2ccc([N+](=O)[O-])cc2)o1)N1CCCCC1 | inactive |  |
| CC1(C(=O)NC2CCCCC2)Cc2ccccc2C(=O)N1Cc1ccc(Cl)cc1 (stereo unspecified) | inconclusive [inhibitor, single point] |  |
| CCNC(=O)C1(C)CCN(C(=O)c2ccccc2F)C1 (stereo unspecified) | inactive |  |
| Cc1c(C)n(Cc2ccc(F)cc2)c2ccc(C(=O)N3CCN(c4ccc(Cl)cc4)CC3)cc12 | inconclusive [inhibitor, single point] |  |

| Structure (SMILES) | Potency | activity change, negative = growth inhibition |
| --- | --- | --- |
| Cc1c(CCO)sc[n+]1CC(=O)OCCC12CC3CC(CC(C3)C1)C2 | inconclusive [inhibitor, single point] |  |
| CCOC(=O)C1(Cc2cccc(OC)c2)CCCN(Cc2ccc(NC(C)=O)cc2)C1 (stereo unspecified) | inconclusive [inhibitor, single point] |  |
| O=C(CSc1nc2ccc(NC(=O)C3CCCCC3)cc2s1)NCC1CCCO1 (stereo unspecified) | inconclusive [inhibitor, partial curve, poor fit] |  |
| Cn1c(=O)c2c(nc(SCC(=O)Nc3ccc(F)cc3F)n2Cc2ccccc2)n(C)c1=O | inconclusive [inhibitor, full curve, poor fit] |  |
| CC(=O)c1ccccc1OCCOCCOCCOc1ccccc1C(C)=O | inconclusive [inhibitor, single point] |  |
| O=C(CN1CCN(c2ncccn2)CC1)N1CCCc2c1c(=O)oc1ccc(O)cc21 | inconclusive [inhibitor, partial curve] |  |
| O=C(Cc1c(F)cccc1Cl)N(Cc1ccccc1)c1ccccn1 | inconclusive [inhibitor, single point] |  |
| Cc1n[nH]c(=S)n1Cc1ccccc1 | inactive |  |
| O=C(/C=C/c1cccc([N+](=O)[O-])c1)Nn1c(-c2ccccc2F)nc2ccccc2c1=O | inconclusive [inhibitor, single point] |  |
| Oc1ccc(/C=N/n2c(-c3ccccc3)n[nH]c2=S)cc1Br | inconclusive [inhibitor, single point] |  |
| CCOC(=O)C1CCN(c2cc3c(cc2NC(=O)c2ccc(OC)c(OC)c2)n(C)c(=O)n3C)CC1 | active: 5.8 µM |  |
| COC(=O)C1=C(C)N(CC2CC2)C(=NCc2cccc(Cl)c2)N[C@H]1c1ccccc1 | inconclusive [inhibitor, single point] |  |
| CCCc1ccc(-c2ccc(C(=O)O)cc2)nc1 | inactive |  |
| CC(=O)c1ccccc1Oc1nc(CN2CCOCC2)nc2scc(-c3cccs3)c12 | inconclusive [inhibitor, single point] |  |
| COc1ccc(C)c2sc(N(CCN(C)C)C(=O)/C=C/c3cccs3)nc12 | inconclusive [inhibitor, single point] |  |
| COC(=O)C1=C(C(=O)OC)SC(=C2C(=S)C(C)(C)N(C(=O)C3CC3)c3ccccc32)S1 | inconclusive [inhibitor, partial curve] |  |
| Cc1ccc(/C=C2\SC(=S)N(CCCC(=O)Nc3ccccc3C(=O)O)C2=O)cc1 | inactive |  |
| CCOc1cc2sc(N3CCC(C(=O)Nc4ccc(C(C)C)cc4)CC3)nc2cc1Br | inconclusive [inhibitor, partial curve] |  |
| CN(CC(=O)Nc1ccc(Cl)c(C(F)(F)F)c1)C(=O)COc1cccc2cccnc12 | inconclusive [inhibitor, single point] |  |
| COc1ccc(NC(=S)NCCCN2CCCC2)cc1 | inactive |  |
| CC(=O)N1[C@H](C)C=C[C@]1(Cc1ccccc1)C(=O)NCc1cc(F)cc(C(F)(F)F)c1 | inconclusive [inhibitor, partial curve, poor fit] |  |
| CON(C)C(=O)CC(CN(Cc1ccccc1)C(=O)OC(C)(C)C)c1ccc(Cl)cc1 (stereo unspecified) | inconclusive [inhibitor, single point] |  |
| CCOc1ccc(NC(=O)CN(c2ccccc2OCC)S(=O)(=O)c2ccccc2)cc1 | active: 18.4 µM |  |
| NC(=O)c1cc(Cl)ccc1OCC(=O)N1CCCc2ccccc21 | inconclusive [inhibitor, partial curve] |  |

| Structure (SMILES) | Potency | activity change, negative = growth inhibition |
| --- | --- | --- |
| CC[N+](CC)=N/N=C1\C=CC[N+]([O-])=C1 | inactive |  |
| N#Cc1ccc(COC(=O)CC(NC(N)=O)c2ccc(Cl)cc2)cc1 (stereo unspecified) | inactive |  |
| COc1ccc(CNC(=O)C2Cc3c(-c4ccccc4Oc4ccccc4)ccnc3O2)cc1OC (stereo unspecified) | active: 20.6 µM |  |
| O=C(CC1C[C@H](C(=O)N2CCOCC2)[C@@]2(CCC3CCCC3)c3[nH]c4ccccc4c3CCN2C1=O)NCCC1=CCCCC1 (stereo partly specified) | inactive |  |
| Clc1ccc(COc2ccccn2)cc1Cl | inconclusive [inhibitor, single point] |  |
| O=C(CCC(=O)N1CCN(c2ccccc2F)CC1)N1CCN(c2ccccc2)CC1 | inactive |  |
| COc1cccc(OCc2nnc3n2N=C(c2ccccc2)C(CC(=O)O)S3)c1 (stereo unspecified) | inactive |  |
| CCC(CC)C(=O)NCc1ccc2c(c1)cc(C)n2C | inconclusive [inhibitor, partial curve] |  |
| COc1ccc(S(=O)(=O)N2CCN(Cc3nc4ccc(C)cc4o3)CC2)cc1OC | inactive |  |
| Clc1nnc(N/N=C/c2ccccc2)c2ccccc12 | inconclusive [inhibitor, single point] |  |
| O=S(=O)(c1ccccc1)N1CCC(Oc2ccc(-n3cnnn3)cc2)CC1 | inconclusive [inhibitor, single point] |  |
| O=C(CSc1nc2ccccc2o1)N/N=C/c1ccco1 |  | inconclusive: -32.5% [inhibitor] |
| Cc1cccc(CNC(=O)Cc2csc3ccccc23)c1 | inactive |  |
| CCCCCNC(=O)C(c1ccccc1F)n1c(=O)c(-c2ccco2)nc2ccccc21 (stereo unspecified) | inconclusive [inhibitor, single point] |  |
| COc1ccc(CN2C[C@@H](CO)O[C@@H](n3cnc4c(N5CCN(c6ccccc6)CC5)ncnc43)C2)cc1 | active: 16.4 µM |  |
| CCc1nc2c(OCC(=O)c3ccc(F)cc3)cccn2c1N(C)C(=O)c1ccc(OC)cc1 | inactive |  |
| Cc1c(Cl)ccc2sc(NC(=O)C3CC3)nc12 | inconclusive [inhibitor, partial curve, poor fit] |  |
| CC(C)c1onc(C(=O)NC2CCCCC2)c1[N+](=O)[O-] | active: 20.6 µM |  |
| COc1ccc(C)c2sc(=NC(=O)c3ccc(C(C)=O)cc3)n(C)c12 | inconclusive [inhibitor, full curve] |  |
| O=C(Oc1ccccc1)N1CCC2(CC1)CCN(c1cccc(-c3ccccc3)c1)CC2 | inconclusive [inhibitor, single point] |  |
| COc1ccc(Nc2nc(N)c([N+](=O)[O-])c(NC3CCCCC3)n2)cc1 | inconclusive [inhibitor, single point] |  |
| Cc1cc(Cl)ccc1NS(=O)(=O)c1ccc2c(c1)CCN2S(C)(=O)=O | active: 20.6 µM |  |
| Cc1cc(=O)n(Cc2cccc(Br)c2)c2c1c(C)nn2-c1ccccc1 | inactive |  |
